Measurements reported in publication PMC4336329 (PLoS ONE, 2015).
The whole screen tested about 310,000 compounds, of which about 2,200 (0.71%) showed an effect of 50% or more. Effects have a minus sign here. Some of the results follow.

molecular target: human ether-à-go-go-related gene (hERG) potassium channel (human, UniProt Q12809); assay: primary screen, population patch clamp on CHO cells stably expressing hERG
Sequence (Q12809 whole entry, looked up): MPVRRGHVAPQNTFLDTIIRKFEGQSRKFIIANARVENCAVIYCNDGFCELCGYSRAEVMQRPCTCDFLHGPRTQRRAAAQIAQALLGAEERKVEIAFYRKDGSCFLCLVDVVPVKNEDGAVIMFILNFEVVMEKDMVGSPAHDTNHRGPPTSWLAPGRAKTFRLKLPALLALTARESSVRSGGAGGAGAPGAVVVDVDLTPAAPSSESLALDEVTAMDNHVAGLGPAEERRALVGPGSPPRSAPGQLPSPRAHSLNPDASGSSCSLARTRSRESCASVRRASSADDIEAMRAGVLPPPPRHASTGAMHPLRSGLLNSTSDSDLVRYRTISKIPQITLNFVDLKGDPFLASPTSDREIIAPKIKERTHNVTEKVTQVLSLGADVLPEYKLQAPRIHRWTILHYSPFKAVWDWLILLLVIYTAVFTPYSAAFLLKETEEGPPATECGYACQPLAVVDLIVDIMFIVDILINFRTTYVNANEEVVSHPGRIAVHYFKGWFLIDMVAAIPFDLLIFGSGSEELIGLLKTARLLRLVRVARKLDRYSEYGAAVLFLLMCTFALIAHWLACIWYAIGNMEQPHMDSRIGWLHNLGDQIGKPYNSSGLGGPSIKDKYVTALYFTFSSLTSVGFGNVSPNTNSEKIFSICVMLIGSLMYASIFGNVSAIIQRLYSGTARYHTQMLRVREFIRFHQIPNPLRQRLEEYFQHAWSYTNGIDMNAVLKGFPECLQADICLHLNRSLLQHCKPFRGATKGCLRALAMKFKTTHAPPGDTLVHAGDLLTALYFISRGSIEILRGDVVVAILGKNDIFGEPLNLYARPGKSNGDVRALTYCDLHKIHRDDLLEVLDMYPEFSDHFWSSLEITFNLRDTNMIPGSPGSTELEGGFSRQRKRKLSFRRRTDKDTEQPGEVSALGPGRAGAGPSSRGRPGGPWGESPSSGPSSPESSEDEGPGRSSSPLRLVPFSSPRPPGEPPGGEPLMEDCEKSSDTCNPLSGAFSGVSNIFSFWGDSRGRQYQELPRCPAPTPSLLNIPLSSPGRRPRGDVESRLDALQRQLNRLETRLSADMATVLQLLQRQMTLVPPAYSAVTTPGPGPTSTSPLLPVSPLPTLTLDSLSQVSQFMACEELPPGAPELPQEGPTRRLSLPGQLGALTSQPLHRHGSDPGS

**Q.** For O=c1c2c(n3nnnc3n1Cc1ccccc1)-c1ccccc1CC21CCCC1, which “hERG current change (%, negative = inhibition) at 1uM” value is on record?
**A.** 7.31%

**Q.** Which “hERG current change (%, negative = inhibition) at 1uM” value does the source give for CCN(CC)CCN1C(=O)C(O)=C(C(=O)c2cccs2)C1c1ccc(C)o1 (stereo not shown) here?
**A.** 16.1%

**Q.** Which “hERG current change (%, negative = inhibition) at 1uM” value does the source give for CCCn1c(CCc2ccccc2)nnc1SCC(=O)N1CCOCC1 here?
**A.** 10.8%

**Q.** COC(=O)c1ccc(-c2nc(CN3CCCN(C(=O)c4ccco4)CC3)c(C)o2)cc1 was tested. Which “hERG current change (%, negative = inhibition) at 1uM” value did it give?
**A.** -15%

**Q.** For COc1ccc2nc(NC(=O)c3ccoc3C)sc2c1, which “hERG current change (%, negative = inhibition) at 1uM” value is on record?
**A.** 17.6%

**Q.** How did the “hERG current change (%, negative = inhibition) at 1uM” value turn out when Cc1ccc2oc(-c3cccc(NC(=O)c4ccccn4)c3)nc2c1 was run?
**A.** 13%

**Q.** With COc1cc(C(=O)NCCC(=O)NCCN2CCOCC2)cc(OC)c1OC as the molecule, how does the “hERG current change (%, negative = inhibition) at 1uM” value read?
**A.** 0.546%

**Q.** With O=C(CN1C(=O)NC2(CCCC2)C1=O)OCc1cccc(Br)c1 as the molecule, how does the “hERG current change (%, negative = inhibition) at 1uM” value read?
**A.** 2.52%

**Q.** How did the “hERG current change (%, negative = inhibition) at 1uM” value turn out when Cc1ccc(NC(=O)COc2ccc(-n3cnnn3)cc2)cc1C was run?
**A.** 6.87%

**Q.** COc1ccc(-n2nc([N+](=O)[O-])c(=NCCc3ccc(OC)c(OC)c3)n2O)cc1 was tested. Which “hERG current change (%, negative = inhibition) at 1uM” value did it give?
**A.** 3.61%

**Q.** For COc1ccc(-c2nn(-c3ccccc3)cc2/C=C/C(=O)N2CCN(c3ccccn3)CC2)cc1, which “hERG current change (%, negative = inhibition) at 1uM” value is on record?
**A.** 11%

**Q.** Which “hERG current change (%, negative = inhibition) at 1uM” value does the source give for Cn1nc(C(=O)OCC(=O)Nc2ccc(Cl)cc2Cl)c2ccccc2c1=O here?
**A.** 15.4%

**Q.** Which “hERG current change (%, negative = inhibition) at 1uM” value does the source give for Cc1ccc(NC(=O)CN2C(=O)N/C(=C/c3ccccc3OCc3cccc(C(=O)O)c3)C2=O)cc1 here?
**A.** 18.1%

**Q.** Which “hERG current change (%, negative = inhibition) at 1uM” value does the source give for Cc1[nH]n(-c2ccccc2)c(=O)c1C=Nc1ccc(S(=O)(=O)Nc2nccs2)cc1 here?
**A.** 12.2%

**Q.** With OC1(c2ccc3c(c2)OCO3)CCN(Cc2ccc(F)cc2)CC1 as the molecule, how does the “hERG current change (%, negative = inhibition) at 1uM” value read?
**A.** -25%

**Q.** Which “hERG current change (%, negative = inhibition) at 1uM” value does the source give for CC(C)COc1ccc(CNC(=S)Nc2ccccc2)cc1Cl here?
**A.** 9.44%

**Q.** COc1ccc(CC(=O)NCCS(=O)(=O)N2CCN(c3ccccc3)CC2)cc1OC was tested. Which “hERG current change (%, negative = inhibition) at 1uM” value did it give?
**A.** 0.961%

**Q.** O=C(CN1C(=O)c2cccc3cccc1c23)N1CCN(c2ccccc2)CC1 was tested. Which “hERG current change (%, negative = inhibition) at 1uM” value did it give?
**A.** 5.53%

**Q.** With COc1ccccc1OCC(=O)N/N=C/c1cccc2cccnc12 as the molecule, how does the “hERG current change (%, negative = inhibition) at 1uM” value read?
**A.** 4.53%

**Q.** Which “hERG current change (%, negative = inhibition) at 1uM” value does the source give for O=C(CN1C(=O)CC(c2ccco2)Sc2ccccc21)NCC1CCCO1 (stereo not shown) here?
**A.** -2.8%

**Q.** For O=C(NCc1ccccc1)[C@@H]1C[C@H]1[C@@H](NP(=O)(c1ccccc1)c1ccccc1)c1ccccc1, which “hERG current change (%, negative = inhibition) at 1uM” value is on record?
**A.** 18.1%

**Q.** With O=S1(=O)CCN(Cc2csc(-c3cccs3)n2)CC1 as the molecule, how does the “hERG current change (%, negative = inhibition) at 1uM” value read?
**A.** 7.56%

**Q.** For COc1ccc(/C=N/NC(=O)c2cccc(NC(=O)c3ccc(F)cc3)c2)c(C(=O)O)c1OC, which “hERG current change (%, negative = inhibition) at 1uM” value is on record?
**A.** 15.3%

**Q.** CN(C(=O)c1ccccc1C(=O)OCC(=O)NCc1ccccc1)C1CCCCC1 was tested. Which “hERG current change (%, negative = inhibition) at 1uM” value did it give?
**A.** 1.26%

**Q.** CC(=O)c1c(C)[nH]c(C(=O)Nc2ccc3c(c2)OCCO3)c1C was tested. Which “hERG current change (%, negative = inhibition) at 1uM” value did it give?
**A.** 13.6%

**Q.** With CN1C(=O)CC(N2CCN(C(=O)CN3CCCC3)CC2)C1=O (stereo not shown) as the molecule, how does the “hERG current change (%, negative = inhibition) at 1uM” value read?
**A.** -8.6%

**Q.** Which “hERG current change (%, negative = inhibition) at 1uM” value does the source give for O=C(NCCc1nc2ccccc2[nH]1)/C(=C/c1ccc2c(c1)OCO2)NC(=O)c1ccc(Cl)cc1Cl here?
**A.** -73.9%

**Q.** Which “hERG current change (%, negative = inhibition) at 1uM” value does the source give for CCOC(=O)Cn1c(=O)oc2cc(S(=O)(=O)N3CCN(c4ccccn4)CC3)ccc21 here?
**A.** 6.6%

**Q.** For Cc1cnc(NC(=O)c2ccco2)s1, which “hERG current change (%, negative = inhibition) at 1uM” value is on record?
**A.** 13.9%

**Q.** CC(C)N(Cc1ccccc1)C(=S)NC1CCCCC1 was tested. Which “hERG current change (%, negative = inhibition) at 1uM” value did it give?
**A.** 8.23%

**Q.** How did the “hERG current change (%, negative = inhibition) at 1uM” value turn out when Cc1ccc(CN2CCC(n3nccc3NC(=O)CCCc3ccccc3)CC2)o1 was run?
**A.** 4.19%

**Q.** For CCC1(C)Cc2ccccc2-c2nc(NCCO)n(-c3ccc(C)cc3)c(=O)c21 (stereo not shown), which “hERG current change (%, negative = inhibition) at 1uM” value is on record?
**A.** -0.202%

**Q.** Which “hERG current change (%, negative = inhibition) at 1uM” value does the source give for Cl.N=c1sccn1CC(=O)Nc1ccc2c(c1)CCC2 here?
**A.** 0.818%

**Q.** With C/C(=N\NC(=O)c1ccc(Br)cc1)c1cccc(NC(=O)c2cccnc2)c1 as the molecule, how does the “hERG current change (%, negative = inhibition) at 1uM” value read?
**A.** 6.03%

**Q.** With Cc1ccc2c(N)c(C(=O)c3ccccc3)sc2n1 as the molecule, how does the “hERG current change (%, negative = inhibition) at 1uM” value read?
**A.** 11.6%

**Q.** For COc1ccc(/C=C/C(=O)OCC(=O)NC2CCS(=O)(=O)C2)cc1 (stereo not shown), which “hERG current change (%, negative = inhibition) at 1uM” value is on record?
**A.** 8.9%

**Q.** For Cc1ccc(C(=O)NCC(=O)NCC(c2cccs2)N2CCOCC2)cc1 (stereo not shown), which “hERG current change (%, negative = inhibition) at 1uM” value is on record?
**A.** 14%

**Q.** O=C(COc1ccccc1Cl)Nc1ccccc1C(=O)N1CCCCC1 was tested. Which “hERG current change (%, negative = inhibition) at 1uM” value did it give?
**A.** 13%

**Q.** Which “hERG current change (%, negative = inhibition) at 1uM” value does the source give for O=C(NCCc1ccccc1)C(=O)NCC1OCCCN1S(=O)(=O)c1cccs1 (stereo not shown) here?
**A.** 9.51%

**Q.** O=C(NNS(=O)(=O)c1ccc(F)cc1)c1cnccn1 was tested. Which “hERG current change (%, negative = inhibition) at 1uM” value did it give?
**A.** 12.6%

**Q.** With CCOc1cc(/C=N/NC(=O)CCn2nnc3ccccc32)ccc1O as the molecule, how does the “hERG current change (%, negative = inhibition) at 1uM” value read?
**A.** 9%

**Q.** With Cc1ccc(Nc2nc(NCCO)c3ccccc3n2)cc1C.Cl as the molecule, how does the “hERG current change (%, negative = inhibition) at 1uM” value read?
**A.** 14.5%

**Q.** With CN1C(=O)NC(c2cccc(F)c2)C2=C1CC(C)(C)CC2=O (stereo not shown) as the molecule, how does the “hERG current change (%, negative = inhibition) at 1uM” value read?
**A.** -0.0235%
